Measurements from PubChem BioAssay AID1347417 (National Center for Advancing Translational Sciences (NCATS), 2020).
Among all 120,000 compounds or so, about 5,300 (4.4%) were called active. The inconclusive results got no clear call from the source; some entries with a clear call stand among them for comparison. Calls follow the shape of the dose curve; as a rule, active = well fitted inhibition curve with a large enough effect; inconclusive = small, poorly fitted or top-dose-only effect; inactive = no such curve, though single readings can be large or run the other way. Potencies beside an inconclusive call are fits to weak or partial responses and may not hold up.

Assay: qHTS Primary assay for Inhibitors of Plasmodium falciparum Dd2 growth in vitro; also: nearly all actives have a fitted effect of over 65% in size;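 as to activity, negative = inhibition: plate controls were DMSO vehicle for no effect and reference drug for full effect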
Conditions: P. falciparum Dd2 growth, SYBR Green, 72 h; activity, negative = inhibition: at 28.9 µM (top of the series) unless noted; series mostly up to 28.9 µM
Method in brief: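 Readout: SYBR Green fluorescence, 485 nm excitation, 535 nm emission, after ~16 h lysis at 37C. Before that, Dd2-infected red cells (2.5% hematocrit) grew 72 h with compound, 29 uM top final concentration.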
Potency is read from the fitted curve at half-maximal effect; tags tell the direction and shape of the fitted curve.

| Compound | Potency | activity, negative = inhibition |
| --- | --- | --- |
| C[S+](=O)([O-])c1ccc(-c2ncc3c(n2)OCCN(c2ccccc2)C3=O)cc1 | inactive | – |
| COc1ccc2c(c1)nc1n2[C@@H](CNC(=O)c2ccc(Cl)cc2)COC1 | inconclusive: 11.2 µM [inhibitor, partial curve, poor fit] | – |
| CCCc1nnc(NC(=O)Cc2coc3cc(C)cc(C)c23)s1 | – | inconclusive: -41.1% [inhibitor] [at 5.79 µM] |
| Cc1ccc(CNC(=O)c2ccc(OC3CCN(S(C)(=O)=O)CC3)c(Cl)c2)s1 | inactive | – |
| CS(=O)(=O)N1CCCN(Cc2ccccc2C#N)CCNC(=O)CC1c1ccccc1 (stereo unspecified) | inconclusive: 17.8 µM [inhibitor, single point] | – |
| CC(C)NC(=O)N[C@H]1CCN2C(=O)c3cc(-c4cccc(C(F)(F)F)c4)ccc3NC(=O)[C@H]12 | inconclusive: 20 µM [inhibitor, partial curve, poor fit] | – |
| COc1cccc(CN2C[C@@H]3C(=O)N(CCN4CCc5ccccc5C4)C(=O)[C@@H]3C2)c1 | inconclusive: 3.98 µM [inhibitor, single point] | – |
| O=C(Cn1c(=O)n(Cc2nc(-c3ccccc3)no2)c(=O)c2cc3c(cc21)OCO3)Nc1ccc(Cl)cc1 | active: 10 µM | – |
| CCn1nccc1C(=O)N1C[C@@H](Oc2ccccc2)C[C@H]1C(=O)NC1CC1 | inactive | – |
| Oc1ccc(CN2CC(CNc3ccccc3)C3(C2)CN(c2ccccc2)C3)cc1 (stereo unspecified) | inconclusive: 0.1 µM [inhibitor, full curve, poor fit] | – |
| CCc1ccccc1NC(=O)Cn1ncc2c(C)n(Cc3ccccc3F)c(C)c2c1=O | inactive | – |
| C[C@@H](NC(=O)C1CC1)c1onc(-c2ccc(Cl)cc2)c1C(=O)O | inactive | – |
| CC(C)CNC(=O)CCSc1nc(-c2ccc3c(c2)OCO3)cc(C(F)(F)F)n1 | inconclusive: 10 µM [inhibitor, single point] | – |
| COc1ccc(Cn2cnc3cccnc32)cc1 | inactive | – |
| CN(C)C(=O)N1CCC2(CC1)CN(C(=O)CCc1c[nH]c3ccccc13)Cc1ccccc1O2 | active: 5.01 µM | – |
| CC(C)C[C@@H]1N[C@H](C(=O)NC(C)C)Cc2cn(Cc3ccncc3)c3cccc1c23 | inconclusive: 0.631 µM [inhibitor, full curve, poor fit] | – |
| COc1ccc(CN2CC3(C2)C(=O)N(Cc2cccc(Cl)c2)C(=O)[C@@H]2C[C@@H](O)CN23)c2ccccc12 | inconclusive: 10 µM [inhibitor, partial curve, poor fit] | – |
| CCOC(=O)c1ccc(N2C(=O)c3n[nH]c(-c4cccs4)c3C2c2cccc(F)c2)cc1 (stereo unspecified) | active: 7.94 µM | – |
| O=C(c1ccc(F)cc1)N1CCC(c2nn(-c3ccc(Cl)cc3)c(=O)[nH]2)CC1 | inconclusive: 17.8 µM [inhibitor, single point] | – |
| O=Cc1cccc(N2CCN(C(=O)c3ccncc3)CC2=O)c1 | inconclusive: 11.2 µM [inhibitor, partial curve, poor fit] | – |
| COCCOc1ccc2c(n1)CCN(C(=O)c1cccc(OC)c1OC)C2 | inconclusive: 4.47 µM [inhibitor, partial curve, poor fit] | – |

| Compound | Potency | activity, negative = inhibition |
| --- | --- | --- |
| CN1CC2(CCN(C(=O)CCCc3ccccc3)CC2)CC1C(=O)N1CCOCC1 (stereo unspecified) | active: 2.24 µM | – |
| Cc1cn2nc(C(=O)NCc3ccc(C(F)(F)F)cc3)cc2c(N2CCCC2)n1 | inactive | – |
| COc1cc(Br)c(C2CC(=O)Nc3cc(OC)c(OC)c(OC)c32)cc1OC (stereo unspecified) | inconclusive: 2.24 µM [inhibitor, single point] | – |
| CCCCN(C)S(=O)(=O)c1cc(-c2nnc3c4ccccc4c(C)nn23)ccc1C | inconclusive: 11.2 µM [inhibitor, single point] | – |
| CN(C)c1ccc(NC(=O)CCSc2nc(-c3ccco3)cc(C(F)(F)F)n2)cc1 | active: 11.2 µM | – |
| Cc1cnc(CC2CCNC2)n1CC1CC1 (stereo unspecified) | inactive | – |
| Cc1cccc(-c2noc([C@@H]3Cc4nc[nH]c4CN3C(=O)NC(C)C)n2)c1 | inconclusive: 11.2 µM [inhibitor, single point] | – |
| CN1c2cc(C(=O)Nc3ccc(Cl)c(Cl)c3)ccc2C(=O)N2CCCCC21 (stereo unspecified) | inconclusive: 8.91 µM [inhibitor, partial curve, poor fit] | – |
| O=C(C1CCCCC1)N1CCc2nn(Cc3ccccc3)c(=O)n2CC1 | inactive | – |
| CCc1nc2cc(N3CCC(C(=O)N4CCN(C)CC4)CC3)cnc2nc1CC | inactive | – |
| Cc1cccc(CSc2cn(CC(=O)N3CCCCC3)c3ccccc23)c1 | inconclusive: 14.1 µM [inhibitor, single point] | – |
| Cc1cc(C)c2sc(N(Cc3cccnc3)C(=O)CCS(=O)(=O)c3ccccc3)nc2c1 | inconclusive: 10 µM [inhibitor, single point] | – |
| CC(C)(C)C1CCc2oc3ccc(NS(=O)(=O)c4cc(Cl)ccc4Cl)cc3c2C1 (stereo unspecified) | inconclusive: 11.2 µM [inhibitor, single point] | – |
| COc1ccccc1CN1CCNc2cc(-c3ccnc(C)c3)ncc2C1 | inconclusive: 12.6 µM [inhibitor, single point] | – |
| O=C(NCC1Cn2cccc2C(=O)N1Cc1ccccc1)C1CCCC1 (stereo unspecified) | inconclusive: 10 µM [inhibitor, single point] | – |
| Cc1noc(C)c1C(=O)N1C[C@@H](COCC2CC2)[C@H](c2ccccn2)C1 | inconclusive: 0.158 µM [inhibitor, partial curve, poor fit] | – |
| Cc1ccc(C)c(S(=O)(=O)c2cn(Cc3ccccc3)c3cc(F)c(F)cc3c2=O)c1 | inconclusive: 17.8 µM [inhibitor, single point] | – |
| COc1cc2c(cc1OC1CCCC1)NC(=O)C21CCN(Cc2ccccc2)CC1 | inconclusive: 3.55 µM [inhibitor, partial curve, poor fit] | – |
| COc1cccc(CC(=O)N2CCC3(CC2)N=C(c2ccc(C)cc2)NO3)c1 | inconclusive: 11.2 µM [inhibitor, partial curve] | – |
| O=C1CCn2nnc(CNc3ccc(OC(F)(F)F)cc3)c2CN1Cc1ccccc1 | inconclusive: 14.1 µM [inhibitor, single point] | – |
